# Data published in the supplement of paper PMC8728848.
# The other results are listed elsewhere or left out.
# B1: MIG/CXCL9 (Homo sapiens) (protein)
# chain: TPVVRKGRCSCISTNQGTIHLQSLKDLKQFAPSPSCEKIEIIIATLKNGVQTCLNPDSADVKELIKKTEKQVSQKKKQKNGKKHQKKKVLKVRKSQRSRQKKTT
# How the values were obtained:
# Test in all cases: glycan array binding signal (z-score within array); higher = stronger binding
# Settings in all cases: glycan notation: IUPAC condensed, linker removed
# Gal4S6S(b1-4)GlcNAc = target: Gal4S6S(b1-4)GlcNAc
# In short: (§1)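 Glycan array binding is given as a within-array Z-score, which can be read as non-binding when negative. The arrays, 3228 of them, came from the Consortium for Functional Glycomics database and were retained only where the protein sequence was available. Z-scores were averaged across arrays of the same protein sequence at different concentrations or buffers and across linkers.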
# Gal6S(b1-4)Glc = target: Gal6S(b1-4)Glc
# In short: as §1
# Gal6S(b1-4)Glc6S = target: Gal6S(b1-4)Glc6S
# In short: as §1
# Gal6S(b1-4)GlcNAc = target: Gal6S(b1-4)GlcNAc
# In short: as §1
# GalNAc(a1-3)Gal = target: GalNAc(a1-3)Gal
# In short: as §1
# GalNAc(a1-3)GalNAc = target: GalNAc(a1-3)GalNAc
# In short: as §1
# [1] = target: GalNAc(b1-3)Gal(a1-4)Gal(b1-4)GlcNAc
# In short: as §1
# GalNAc(b1-3)GalNAc = target: GalNAc(b1-3)GalNAc
# In short: as §1
# GalNAc(b1-4)GlcNAc = target: GalNAc(b1-4)GlcNAc
# In short: as §1
# Glc(a1-4)Glc = target: Glc(a1-4)Glc
# In short: as §1
# Glc(a1-6)Glc(a1-6)Glc = target: Glc(a1-6)Glc(a1-6)Glc
# In short: as §1
# Glc(b1-4)Glc = target: Glc(b1-4)Glc
# In short: as §1
# Glc(b1-6)Glc = target: Glc(b1-6)Glc
# In short: as §1
# GlcA(b1-3)Gal = target: GlcA(b1-3)Gal
# In short: as §1
# GlcA(b1-6)Gal = target: GlcA(b1-6)Gal
# In short: as §1
# [2] = target: GlcNAc(a1-3)Gal(b1-4)GlcNAc
# In short: as §1
# [3] = target: GlcNAc(a1-6)Gal(b1-4)GlcNAc
# In short: as §1
# [4] = target: GlcNAc(b1-2)Gal(b1-3)GalNAc
# In short: as §1
# [5] = target: GlcNAc(b1-2)Man(a1-3)[GlcNAc(b1-2)Man(a1-6)]Man(b1-4)GlcNAc(b1-4)GlcNAc
# In short: as §1
# GlcNAc(b1-3)Gal = target: GlcNAc(b1-3)Gal
# In short: as §1
# [6] = target: GlcNAc(b1-3)Gal(b1-3)GalNAc
# In short: as §1
# GlcNAc(b1-3)Gal(b1-4)Glc = target: GlcNAc(b1-3)Gal(b1-4)Glc
# In short: as §1
# [7] = target: GlcNAc(b1-3)Gal(b1-4)GlcNAc
# In short: as §1
# [8] = target: GlcNAc(b1-3)Gal(b1-4)GlcNAc(b1-3)Gal(b1-4)GlcNAc
# In short: as §1
# GlcNAc(b1-3)GalNAc = target: GlcNAc(b1-3)GalNAc
# In short: as §1
# [9] = target: GlcNAc(b1-3)[GlcNAc(b1-6)]Gal(b1-4)GlcNAc
# In short: as §1
# [10] = target: GlcNAc(b1-3)[GlcNAc(b1-6)]GalNAc
# In short: as §1
# [11] = target: GlcNAc(b1-3)[GlcNAc(b1-6)]GlcNAc(b1-4)GlcNAc
# In short: as §1
# [12] = target: GlcNAc(b1-4)Gal(b1-4)GlcNAc
# In short: as §1
# [13] = target: GlcNAc(b1-4)GlcNAc(b1-4)GlcNAc
# In short: as §1
# [14] = target: GlcNAc(b1-4)GlcNAc(b1-4)GlcNAc(b1-4)GlcNAc(b1-4)GlcNAc
# In short: as §1
# [15] = target: GlcNAc(b1-4)GlcNAc(b1-4)GlcNAc(b1-4)GlcNAc(b1-4)GlcNAc(b1-4)GlcNAc
# In short: as §1
# [16] = target: GlcNAc(b1-4)[GlcNAc(b1-6)]GalNAc
# In short: as §1
# [17] = target: GlcNAc(b1-6)Gal(b1-4)GlcNAc
# In short: as §1
# GlcNAc(b1-6)GalNAc = target: GlcNAc(b1-6)GalNAc
# In short: as §1
# Kdn(a2-3)Gal(b1-3)GlcNAc = target: Kdn(a2-3)Gal(b1-3)GlcNAc
# In short: as §1
# Kdn(a2-3)Gal(b1-4)GlcNAc = target: Kdn(a2-3)Gal(b1-4)GlcNAc
# In short: as §1
# [18] = target: Man(a1-2)Man(a1-2)Man(a1-3)Man
# In short: as §1
# [19] = target: Man(a1-2)Man(a1-2)Man(a1-6)[Man(a1-3)]Man
# In short: as §1
# Man(a1-2)Man(a1-3)Man = target: Man(a1-2)Man(a1-3)Man
# In short: as §1
# [20] = target: Man(a1-2)Man(a1-3)[Man(a1-2)Man(a1-6)]Man
# In short: as §1
# [21] = target: Man(a1-2)Man(a1-3)[Man(a1-2)Man(a1-6)]Man(a1-6)[Man(a1-2)Man(a1-2)Man(a1-3)]Man(b1-4)GlcNAc(b1-4)GlcNAc
# In short: as §1
# [22] = target: Man(a1-2)Man(a1-3)[Man(a1-6)]Man(a1-6)[Man(a1-2)Man(a1-3)]Man(b1-4)GlcNAc(b1-4)GlcNAc
# In short: as §1
# [23] = target: Man(a1-2)Man(a1-6)[Man(a1-3)]Man(a1-6)[Man(a1-2)Man(a1-2)Man(a1-3)]Man(b1-4)GlcNAc(b1-4)GlcNAc
# In short: as §1
# Man(a1-3)[Man(a1-6)]Man = target: Man(a1-3)[Man(a1-6)]Man
# In short: as §1
binder,measurement,setting,value
B1,glycan array binding signal (z-score),Gal4S6S(b1-4)GlcNAc,0.755
same,glycan array binding signal (z-score),Gal6S(b1-4)Glc,-0.013
same,glycan array binding signal (z-score),Gal6S(b1-4)Glc6S,2.35
same,glycan array binding signal (z-score),Gal6S(b1-4)GlcNAc,-0.128
same,glycan array binding signal (z-score),GalNAc(a1-3)Gal,-0.015
same,glycan array binding signal (z-score),GalNAc(a1-3)GalNAc,0.274
same,glycan array binding signal (z-score),[1],-0.321
same,glycan array binding signal (z-score),GalNAc(b1-3)GalNAc,-0.202
same,glycan array binding signal (z-score),GalNAc(b1-4)GlcNAc,-0.358
same,glycan array binding signal (z-score),Glc(a1-4)Glc,-0.178
same,glycan array binding signal (z-score),Glc(a1-6)Glc(a1-6)Glc,-0.405
same,glycan array binding signal (z-score),Glc(b1-4)Glc,-0.186
same,glycan array binding signal (z-score),Glc(b1-6)Glc,-0.376
same,glycan array binding signal (z-score),GlcA(b1-3)Gal,0.283
same,glycan array binding signal (z-score),GlcA(b1-6)Gal,0.173
same,glycan array binding signal (z-score),[2],-0.336
same,glycan array binding signal (z-score),[3],-0.477
same,glycan array binding signal (z-score),[4],-0.21
same,glycan array binding signal (z-score),[5],0.001
same,glycan array binding signal (z-score),GlcNAc(b1-3)Gal,0
same,glycan array binding signal (z-score),[6],-0.337
same,glycan array binding signal (z-score),GlcNAc(b1-3)Gal(b1-4)Glc,-0.432
same,glycan array binding signal (z-score),[7],0.173
same,glycan array binding signal (z-score),[8],-0.353
same,glycan array binding signal (z-score),GlcNAc(b1-3)GalNAc,-0.259
same,glycan array binding signal (z-score),[9],-0.12
same,glycan array binding signal (z-score),[10],-0.416
same,glycan array binding signal (z-score),[11],-0.284
same,glycan array binding signal (z-score),[12],0.09
same,glycan array binding signal (z-score),[13],-0.264
same,glycan array binding signal (z-score),[14],-0.044
same,glycan array binding signal (z-score),[15],-0.276
same,glycan array binding signal (z-score),[16],-0.459
same,glycan array binding signal (z-score),[17],-0.332
same,glycan array binding signal (z-score),GlcNAc(b1-6)GalNAc,-0.438
same,glycan array binding signal (z-score),Kdn(a2-3)Gal(b1-3)GlcNAc,-0.418
same,glycan array binding signal (z-score),Kdn(a2-3)Gal(b1-4)GlcNAc,-0.335
same,glycan array binding signal (z-score),[18],-0.265
same,glycan array binding signal (z-score),[19],-0.289
same,glycan array binding signal (z-score),Man(a1-2)Man(a1-3)Man,0.019
same,glycan array binding signal (z-score),[20],-0.339
same,glycan array binding signal (z-score),[21],-0.343
same,glycan array binding signal (z-score),[22],-0.274
same,glycan array binding signal (z-score),[23],-0.358
same,glycan array binding signal (z-score),Man(a1-3)[Man(a1-6)]Man,0.335
